Experimental data published in PubChem BioAssay AID1347165 (National Center for Advancing Translational Sciences (NCATS), 2019).
About 5,700 (2.6%) of roughly 220,000 compounds were called active. The inconclusive results got no clear call from the source; some entries with a clear call stand among them for comparison. The call rests on the fitted dose curve; in most records, active means well fitted inhibition curve with a large enough effect; inconclusive means small, poorly fitted or top-dose-only effect; inactive means no such curve, though single readings can be large or run the other way. Where the call is inconclusive, the potency comes from a doubtful curve fit.

Molecular target: Lysine-specific demethylase 5B (Homo sapiens) (UniProt Q9UGL1)
Chain of UniProt Q9UGL1 (Q9UGL1 whole entry, looked up): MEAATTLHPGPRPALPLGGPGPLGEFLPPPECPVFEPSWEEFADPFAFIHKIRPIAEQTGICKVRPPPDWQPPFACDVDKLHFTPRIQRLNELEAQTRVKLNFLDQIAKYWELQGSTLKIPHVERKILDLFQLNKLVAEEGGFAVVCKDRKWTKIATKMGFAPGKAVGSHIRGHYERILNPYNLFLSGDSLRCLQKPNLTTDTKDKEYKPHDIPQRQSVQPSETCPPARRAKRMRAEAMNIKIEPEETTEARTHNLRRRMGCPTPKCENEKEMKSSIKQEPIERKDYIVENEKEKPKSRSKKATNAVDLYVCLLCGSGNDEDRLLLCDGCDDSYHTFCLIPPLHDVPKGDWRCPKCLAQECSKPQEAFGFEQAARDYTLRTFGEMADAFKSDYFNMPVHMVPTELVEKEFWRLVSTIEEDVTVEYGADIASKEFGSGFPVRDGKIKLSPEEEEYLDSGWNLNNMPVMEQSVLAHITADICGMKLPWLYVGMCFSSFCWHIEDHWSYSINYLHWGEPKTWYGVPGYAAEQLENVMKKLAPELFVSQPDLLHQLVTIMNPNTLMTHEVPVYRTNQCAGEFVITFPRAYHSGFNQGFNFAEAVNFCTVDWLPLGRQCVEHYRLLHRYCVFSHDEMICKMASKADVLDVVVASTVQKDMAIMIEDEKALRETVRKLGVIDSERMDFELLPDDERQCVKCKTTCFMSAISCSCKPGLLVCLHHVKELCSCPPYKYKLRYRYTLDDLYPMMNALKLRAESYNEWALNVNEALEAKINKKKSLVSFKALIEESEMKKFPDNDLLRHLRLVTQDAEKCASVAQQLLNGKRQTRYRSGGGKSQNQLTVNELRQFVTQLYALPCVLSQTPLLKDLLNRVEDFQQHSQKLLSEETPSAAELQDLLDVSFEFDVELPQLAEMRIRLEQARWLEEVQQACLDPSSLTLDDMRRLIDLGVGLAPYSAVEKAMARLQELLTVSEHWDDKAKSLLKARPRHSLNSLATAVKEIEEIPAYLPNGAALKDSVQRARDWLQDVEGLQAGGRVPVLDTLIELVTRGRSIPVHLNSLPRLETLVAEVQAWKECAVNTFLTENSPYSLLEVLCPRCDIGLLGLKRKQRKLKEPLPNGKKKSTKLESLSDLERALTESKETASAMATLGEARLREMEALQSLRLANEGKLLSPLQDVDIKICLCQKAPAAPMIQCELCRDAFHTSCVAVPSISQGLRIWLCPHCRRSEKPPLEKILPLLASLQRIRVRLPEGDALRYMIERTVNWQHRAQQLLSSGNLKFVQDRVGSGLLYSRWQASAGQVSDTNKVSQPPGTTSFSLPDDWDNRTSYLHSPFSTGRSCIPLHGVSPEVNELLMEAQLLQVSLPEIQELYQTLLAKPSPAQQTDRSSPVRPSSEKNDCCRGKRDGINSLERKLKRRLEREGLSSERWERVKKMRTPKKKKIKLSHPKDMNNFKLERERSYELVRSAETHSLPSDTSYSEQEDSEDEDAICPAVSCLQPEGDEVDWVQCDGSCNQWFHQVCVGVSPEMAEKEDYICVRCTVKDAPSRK
Experiment: Primary screen for KDM5B Histone Demethylases FDH-coupled qHTS; further: nearly all actives have a fitted effect of over 70% in size; on activity change, negative = inhibition: 0% is about no effect
Conditions: FDH-coupled NADH fluorescence (FDH is formaldehyde dehydrogenase); activity change, negative = inhibition: at 57.7 µM (top of the series) unless noted
Procedure, shortened: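 Inhibition is measured as reduced NADH fluorescence generation from FDH coupling to formaldehyde release. Truncated KDM5BΔAP at 200 nM final acts on H3K4me3 peptide (12.5 µM in substrate mix) in pH 7.5 HEPES buffer with Tween-20, 30 min, room temperature.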
Potency means the concentration at half of the fitted maximal effect; tags describe the fitted curve by direction and shape.

SMILES	Potency	activity change, negative = inhibition
CCn1cc(C(=O)N2CCCC(C(=O)Nc3cccc(-c4cc5ccccc5[nH]4)c3)C2)cn1 (stereo unspecified)	active: 28.2 µM	–
COC(=O)c1sccc1-c1ccc(/C=N/OC(=O)c2cccs2)o1	inconclusive: 28.2 µM [inhibitor, partial curve, poor fit]	–
COC(=O)C1CCN(S(=O)(=O)c2cc3c4c(c2)C(C)C(=O)N4CCC3)CC1 (stereo unspecified)	inconclusive: 28.2 µM [inhibitor, partial curve, poor fit]	–
Cc1ccc(C(=O)N2CCC(Oc3ccc(NC(=O)c4ccccc4)cn3)C2)cc1 (stereo unspecified)	–	inactive: 14.7%
CCN(CC)CCCNc1oc(-c2cccc(C)c2)nc1C#N	inconclusive: 28.2 µM [inhibitor, partial curve, poor fit]	–
CC(C)(C)NS(=O)(=O)c1ccc2nc(NC(=O)c3cccnc3)sc2c1	inconclusive: 35.5 µM [inhibitor, single point]	–
COCCC(=O)N1CCCC(C(=O)N2CCN(c3ccccn3)CC2)CCNC(=O)CC1 (stereo unspecified)	active: 28.2 µM	–
CC(=O)CSc1cc(C)nc2c(-c3ccccc3)c(C)nn12	inconclusive: 39.8 µM [inhibitor, single point]	–
COC(=O)CNC(=O)Nc1cc(C(=O)NCc2ccc(C)cc2)ccc1N1CCCC1	inconclusive: 15.8 µM [inhibitor, partial curve, poor fit]	–
CC(C)CNc1ccc2c(n1)C(C)(C(=O)NCCc1cnc[nH]1)CN(Cc1ccccc1)C2 (stereo unspecified)	inconclusive: 25.1 µM [inhibitor, single point]	–
Ic1ccc(-c2nc(-c3ccccn3)no2)cc1	–	inactive: 13%
CCOC(=O)c1c(C)c(-c2ccccc2)n(CC(=O)Nc2cc(OC)cc(OC)c2)c1C	inconclusive: 2.51 µM [inhibitor, partial curve, poor fit]	–
CCc1nc(C)sc1C(=O)N1CCCC(c2[nH]ncc2-c2ccccc2)C1 (stereo unspecified)	–	inactive: -16%
COc1ccc(N(CC(=O)NC(C)c2ccccc2)S(=O)(=O)c2c(C)noc2C)cc1 (stereo unspecified)	inconclusive: 25.1 µM [inhibitor, partial curve, poor fit]	–
N#C/C(=C\c1c(Oc2ccc(Cl)cc2)nc2ccccn2c1=O)C(=O)NC1CCS(=O)(=O)C1 (stereo unspecified)	inconclusive: 22.4 µM [inhibitor, partial curve, poor fit]	–
CCCN(C(=O)c1cc2c(s1)-c1ccccc1SC2)c1ccccc1F	inconclusive: 39.8 µM [inhibitor, partial curve, poor fit]	–
COc1ccc(NC(=O)Cn2ccn3nc(-c4ccc(F)cc4)c(CO)c3c2=O)c(OC)c1	inconclusive: 20 µM [inhibitor, single point]	–
CC(C)NC(=O)c1ccc(-c2nnc3ccc(NC(=O)C4CCC4)cn23)cc1	active: 25.1 µM	–
Cc1cc2c(cc1S(=O)(=O)NCc1ccc(N(C)C)cc1)OCC(=O)N2	inconclusive: 25.1 µM [inhibitor, partial curve, poor fit]	–
CC(Oc1cccc(F)c1)C(=O)NCCc1cccs1 (stereo unspecified)	–	inactive: -9.24%
CCOC(=O)c1c(S(=O)(=O)NCC(=O)N2CCC3(CC2)OCCO3)c(C)n(C)c1C	–	inactive: 7.69%
CCOc1ccccc1CNC(=O)Nc1cn(CC(C)C)c(=O)c2ccccc12	inconclusive: 2.51 µM [inhibitor, full curve, poor fit]	–

SMILES	Potency	activity change, negative = inhibition
O=C(Nc1cccc(F)c1)Nc1ccc(=O)n2c1[C@@H]1C[C@@H](CN(C(=O)COc3ccccc3)C1)C2	–	inactive: 142%
COCCNC(=O)c1ccc(OC2CCN(Cc3cccc(SC)c3)CC2)c(Cl)c1	inconclusive: 35.5 µM [inhibitor, partial curve, poor fit]	–
COc1ccc(CCNC(=O)CCn2c(=O)c3cccn3c3ccc(F)cc32)c(OC)c1OC	inconclusive: 39.8 µM [inhibitor, single point]	–
Cc1ccc(OCc2nc3ccccc3n2CC(C)C)cc1	inconclusive: 28.2 µM [inhibitor, partial curve, poor fit]	–
CCc1nn2c(=O)cc(CNc3cc4c(cc3Br)OCCO4)nc2s1	–	inactive: 1.28%
Cc1ccc2nc(-c3ccccn3)cc(C(=O)O)c2c1	inconclusive: 25.1 µM [inhibitor, partial curve, poor fit]	–
COc1ccc(-c2nc3c(C#N)c[nH]n3c2NC2CCCCC2)c(OC)c1	inconclusive: 12.6 µM [inhibitor, partial curve, poor fit]	–
CSc1ccc(C(C2=C(O)CC(C)(C)CC2=O)C2C(=O)CC(C)(C)CC2=O)cc1 (stereo unspecified)	inconclusive: 39.8 µM [inhibitor, single point]	–
COc1ccc(CCC(=O)N2CCCN(c3cc(-c4ccc(OC)cc4)[nH]n3)CC2)cc1	inconclusive: 14.1 µM [inhibitor, partial curve, poor fit]	–
COCCN1CC(C(=O)N2CCN(c3ncccc3C#N)CC2)CCC1=O (stereo unspecified)	active: 31.6 µM	–
CCCCOC(=O)c1ccc(NC(=O)c2cc(=O)c3cc(C)cc(C)c3o2)cc1	–	inactive: 12.2%
NCCc1noc(-c2ccccc2)n1	–	inactive: -5.5%
c1ccc(-c2noc(-c3ccn4c(CN5CCc6ccccc6C5)nnc4c3)n2)cc1	active: 31.6 µM	–
CCNC(=O)N1CC(Oc2ccccc2-c2nc(-c3cnccn3)no2)C1	–	inactive: -20.6%
CCCc1cc(=O)oc2cc(OC(C)C(=O)OCC)ccc12 (stereo unspecified)	inconclusive: 22.4 µM [inhibitor, partial curve, poor fit]	–
Cc1cn2nc(C(=O)NCc3ccccc3F)cc2c(N2CCSCC2)n1	inconclusive: 28.2 µM [inhibitor, partial curve, poor fit]	–
CN1CC(=O)N(C2CCNC2)Cc2c(NC3CCCCCC3)ncnc21 (stereo unspecified)	inconclusive: 63.1 µM [inhibitor, partial curve, poor fit]	–
Cc1cccc(-c2nc(CSc3nc(C)c(C)c(=O)[nH]3)c(C)o2)c1	–	inactive: 2.36%
O=C(c1cccnc1)N1CCN(c2nnc3ccc(Cl)cn23)CC1	active: 15.8 µM	–
CNC(=O)Nc1ccc(C)n(CC(=O)NCc2ccccc2F)c1=O	inconclusive: 35.5 µM [inhibitor, single point]	–
CN1CCCC1CNC(=O)Cc1cn(C)c2ccccc12 (stereo unspecified)	–	inactive: -30%
COc1ccc(C(=O)Nc2ccc(-c3nnc4n3CCCC4)cc2)cn1	–	inactive: 8.01%

SMILES	Potency	activity change, negative = inhibition
COc1ccccc1OCC(=O)N(Cc1ccc(-c2ccc(Cl)cc2)o1)C1CCS(=O)(=O)C1 (stereo unspecified)	inconclusive: 39.8 µM [inhibitor, partial curve, poor fit]	–
O=C(c1cc2ccccc2oc1=O)N(Cc1cccc(Cl)c1)C1CCS(=O)(=O)C1 (stereo unspecified)	inconclusive: 1.41 µM [inhibitor, partial curve, poor fit]	–
CC(C)N1CNC(=O)C12CCN(C(=O)c1ccc(Cl)cc1)CC2	–	inactive: -0.212% [at 149 µM]
CC(c1ccc(-c2cc(N)ncn2)cc1)N1CCCCC1 (stereo unspecified)	inconclusive: 39.8 µM [inhibitor, partial curve, poor fit]	–
O=S(=O)(NCCc1csc(-c2ccc(F)cc2)n1)c1ccc(Cl)cc1	inconclusive: 31.6 µM [inhibitor, single point]	–
COc1cccc(NC(=O)c2nnn(Cc3nc(-c4ccc(OC)c(OC)c4)oc3C)c2N)c1	–	inactive: -27.9%
O=C(O)c1cc(-c2ccco2)nc2c(Cl)cccc12	inconclusive: 22.4 µM [inhibitor, partial curve, poor fit]	–
COC(=O)c1ccc(COC(=O)/C=C/c2ccc(OCC#N)c(OC)c2)cc1	inconclusive: 31.6 µM [inhibitor, single point]	–
CCOC(=O)c1ccc(NC(=O)CCc2c(C)nc3c(c(C)nn3C)c2C)cc1	inconclusive: 28.2 µM [inhibitor, partial curve, poor fit]	–
CCOC(=O)c1ccc(N2CCN(C(C)=O)CC2)c(NC(=O)c2ccccc2C)c1	inconclusive: 39.8 µM [inhibitor, single point]	–
Cc1ccccc1CNC(=O)c1ccc(Nc2cc(-c3ccc(F)cc3)ncn2)cc1	inconclusive: 2 µM [inhibitor, full curve, poor fit]	–
Cc1ccc(Cl)cc1NC(=O)c1ccc(-c2nc(CSc3ccccc3)c(C)o2)cc1	inconclusive: 28.2 µM [inhibitor, partial curve, poor fit]	–
O=C(OCCOc1ccccc1F)c1ccc2nccnc2c1	–	inactive: -2.99%
CNC(=O)Nc1ccc(C)n(CC(=O)N2CCN(c3ccccc3OC)CC2)c1=O	inconclusive: 17.8 µM [inhibitor, partial curve]	–
Cc1n[nH]c(C)c1CCC(=O)NCC1CCN(c2cc(-c3ccccc3)[nH]n2)CC1	inconclusive: 15.8 µM [inhibitor, partial curve]	–
Cc1[nH]c2ccc(Cl)cc2c1CCNC(=S)NC(C)(C)C	–	inactive: 11.5%
COc1ccc(N2C(=O)CSC23C(=O)N(CC(=O)Nc2ccccc2OC)c2ccccc23)cc1 (stereo unspecified)	–	inactive: 11.9%
COc1ccc(N2CCN(CC(O)COc3ccc(C(C)(C)C)cc3)CC2)cc1 (stereo unspecified)	inconclusive: 25.1 µM [inhibitor, partial curve, poor fit]	–
Cc1ccc(S(=O)(=O)c2[nH]c(-c3ccccc3)nc2SCC(=O)O)cc1	–	inactive: -29.1%
CCCCc1nc(N2CCCCC2)c(C#N)c2c1CCCC2	inconclusive: 39.8 µM [inhibitor, single point]	–
Cc1ccc(C)c(-n2nc(-c3c(C)nc4scc(CC(=O)NCc5ccco5)n4c3=O)cc2C)c1	active: 20 µM	–
Cc1cccc2c1NC(=O)C2(O)c1c(C)[nH]c2ccccc12 (stereo unspecified)	inconclusive: 31.6 µM [inhibitor, single point]	–
